Measurements from PubChem BioAssay (NCI).
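Results reflect a 48-hour exposure of cells in 96-well plates to compound at five concentrations. At the GI50, growth is halved. At the TGI there is no net growth.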

tested on: NCI-H322M lung; assay: inhibition of tumour cell growth, NCI panel, 48 h

| Structure (SMILES) | TGI [µM] | GI50 [µM] |
| --- | --- | --- |
| O=C(CCCCCCCCC(=O)NN1C(=O)/C(=C\c2ccc(O)c(O)c2)SC1c1ccc(Cl)cc1)NN1C(=O)/C(=C\c2ccc(O)c(O)c2)SC1c1ccc(Cl)cc1 (stereo not drawn) | 54.1 |  |
| CSc1cc(N=Nc2nc3ccccc3s2)c2ccccc2c1O | 25.8 | 13.3 |
| CC(=O)Nc1ccccc1Sc1ccccc1 | > 100 |  |
| CC1(Cl)C(=O)NC(=O)N(C2CC(N=[N+]=[N-])C(CO)O2)C1N=[N+]=[N-] (stereo not drawn) | > 100 |  |
| COc1ccc(OC)c(NC(=O)C(=O)C(C(C)=O)c2nc3ccc(Cl)cc3[nH]c2=O)c1 (stereo not drawn) | > 50 |  |
| Cc1cc2c(cc1C)[n+](=O)c(C(=O)CC(=O)C(=O)Nc1c(C(C)C)cccc1C(C)C)c(C)n2[O-] | > 100 |  |
| CC(O[Si](c1ccccc1)(c1ccccc1)C(C)(C)C)[C@H](NC(=O)OC(C)(C)C)C(=O)O[Si](c1ccccc1)(c1ccccc1)C(C)(C)C (stereo partly drawn) | 25.1 |  |
| CC[CH2][Pb]([CH2]CC)([CH2]CC)[O]C(=O)C(F)(F)F | 0.517 | 0.201 |
| CN(C)/N=N/c1nc2c(c(=O)n(C)c(=O)n2C)n1C | > 100 |  |
| CCN1c2ccccc2-n2c(C)nnc2-c2c1n[nH]c2-c1ccccc1 | > 100 |  |
| OCC1CCCCCCCCCCC12SCCCS2 (stereo not drawn) | > 100 |  |
| O=C(/C=C/c1ccc(O)c([N+](=O)[O-])c1)CC(=O)/C=C/c1ccc(O)c([N+](=O)[O-])c1 | > 100 |  |
| N#C/C(=C1C=C/C(=N/O)C(Br)=C/1)c1ccccc1 | > 100 | 3.97 |
| CC(C)OP(=O)(OC(C)C)c1c(Nc2ccccc2)n[nH]c1N | > 100 |  |
| CC1OC(n2cc(F)c(=O)[nH]c2=O)CCC1O (stereo not drawn) | > 100 |  |
| COC(=O)CC(=O)C[P+](c1ccccc1)(c1ccccc1)c1ccccc1 | > 218 |  |
| OC1C2[C@@H](O)CCCN2C[C@@H](O)[C@H]1O (stereo partly drawn) | > 100 |  |
| Cc1c(-c2nc3ccccc3[nH]2)c(=O)n(-c2ccccc2)n1C | > 100 |  |
| CC1(C)OCC(COC(=O)C=[N+]=[N-])O1 (stereo not drawn) | > 100 |  |

| Structure (SMILES) | TGI [µM] | GI50 [µM] |
| --- | --- | --- |
| O=C1CNCCCN2CCN(CCCNCC(=O)Nc3ccc(cc3)S(=O)(=O)c3ccc(cc3)NC(=O)CNCCCN3CCN(CCCNCC(=O)Nc4ccc(cc4)S(=O)(=O)c4ccc(cc4)N1)CC3)CC2 | > 100 |  |
| COC(=O)C1(C(=O)OC)CC2=C(S(=O)(=O)c3ccccc3)C[C@H](S(=O)(=O)c3ccccc3)[C@H]2C1 | > 100 |  |
| COCOC1/C=C/CCCCC2=C(C)C=C(C1)O2 (stereo not drawn) | > 100 |  |
| COc1cccc(-c2cc(=O)c3ccccc3o2)c1N | > 100 |  |
| CNC(=O)OCc1c(COC(=O)NC)c(-c2ccc(Cl)c(Cl)c2)n2c1SCC2 | 48 |  |
| COC(=O)c1cc2c3ccccc3[nH]c2c2ncccc12 | > 100 | > 100 |
| CCOC(=O)NC(=O)c1cn(C2OC(COC(=O)CCCCCCCCC(=O)OCC3OC(n4cc(C(=O)NC(=O)OCC)c(=O)[nH]c4=O)C(O)C3O)C(O)C2O)c(=O)[nH]c1=O (stereo not drawn) | > 100 |  |
| CCCc1cc(=O)c2c(C)c3[nH]c4ccc(Cl)cc4c3c(C)c2[nH]1 | 30.4 |  |
| Cc1ccc(-c2c(C#N)c(-c3ccccc3)n(NS(=O)(=O)c3ccccc3)c(=O)c2C#N)cc1 | > 100 |  |
| COc1cc(-c2cc(=O)c3cc4c(cc3[nH]2)OCO4)cc(OC)c1O | > 10 |  |
| O=C1/C(=C/c2ccc(Br)cc2)C=C(c2ccccc2)N1CCc1ccccc1 | 18.8 | 1.2 |
| COC(=O)C1C(C(=O)OC)N(Cc2ccccc2)C(=O)N1Cc1ccccc1 (stereo not drawn) | > 100 |  |
| O=c1nc(N2CCN(c3ccccc3)CC2)ccn1C1OC(CO)C(O)C1O (stereo not drawn) | > 100 |  |
| Cn1c(N2NC(=O)C(N=Nc3ccc(S(N)(=O)=O)cc3)C2=O)nc(-c2ccco2)c(C#N)c1=O (stereo not drawn) | > 50 | 0.256 |
| CC(C)=CCOC(=O)C(C)=[N+]=[N-] | > 100 |  |
| Cc1ccc(C)c(NC(=O)CC/C(=N\NC(=O)C(=O)NN)C(C)C(=O)c2ccc(O)cc2)c1 (stereo not drawn) | > 100 |  |
| Cc1ccc([C@@H]2[C@@H](C(=O)c3ccccn3)[C@H](c3ccc(C)cc3)C[C@](O)(c3ccccn3)[C@H]2C(=O)c2ccccn2)cc1 | 55 |  |
| COc1ccc(-c2cc(-c3ccco3)c(C#N)c(=S)n2C2OC(COC(C)=O)C(OC(C)=O)C(OC(C)=O)C2OC(C)=O)cc1 (stereo not drawn) | 32.4 |  |
